Values joined by “and” are separate entries in the source; they are usually repeats but may differ in a detail not shown here. Equal values may be shown once. This continues a long series; more values of the same kind are listed elsewhere.
System: human LDL
Test: Copper-induced LDL oxidation, dose and time dependence, MDA (Example 17)
Format: biochemical
Method: LDL was isolated from human plasma by isopycnic centrifugation, separated into test samples of 100 μg/mL, and incubated at 37° C. for 30 min in the absence (vehicle) or presence of EPA over a range of concentrations of 1 to 10 μM. The samples were subsequently subjected to copper-induced oxidation. Following the copper-induced oxidation, LDL oxidation was measured over the course of six hours. Tables 8 and 9 enumerate the changes in MDA concentration expressed as molar equivalents for each of the vehicle and EPA test samples as a function of time (i.e., at 0 hours, 1 hour, 2 hours, 2.5 hours, and 3 hours).

In the case of `CC/C=C\C/C=C\C/C=C\C/C=C\C/C=C\CCCC(=O)O` [EPA, cis-5,8,11,14,17-eicosapentaenoic acid], the “MDA Equivalent” value (EPA 1.0 μM, 3.5 Hour) is reported as 10.83 µM, the “MDA Equivalent” value (EPA 1.0 μM, 4 Hour) is reported as 9.94 µM and the “MDA Equivalent” value (EPA 1.0 μM, 6 Hour) is reported as 9.72 µM. For the same compound, the “MDA Equivalent” value (EPA 2.0 μM, 3 Hour) was 8.81 µM and 9.11 µM and 9.33 µM, the “MDA Equivalent” value (EPA 2.0 μM, 3.5 Hour) was 10.15 µM and 10.54 µM and 10.11 µM and the “MDA Equivalent” value (EPA 2.0 μM, 4 Hour) was 9.48 µM and 9.79 µM and 9.96 µM. For the same compound, the “MDA Equivalent” value (EPA 2.0 μM, 6 Hour) was 9.40 µM and 9.51 µM and 10.31 µM, the “MDA Equivalent” value (EPA 3.0 μM, 3 Hour) was 5.76 µM and 6.45 µM and 6.29 µM and the “MDA Equivalent” value (EPA 3.0 μM, 3.5 Hour) was 8.99 µM and 9.34 µM and 8.95 µM. For the same compound, the “MDA Equivalent” value (EPA 3.0 μM, 4 Hour) was 9.72 µM and 9.92 µM and 9.91 µM, the “MDA Equivalent” value (EPA 3.0 μM, 6 Hour) was 10.36 µM and 10.61 µM and 10.44 µM and the “MDA Equivalent” value (EPA 3.5 μM, 3 Hour) was 2.28 µM and 2.61 µM and 1.39 µM. For the same compound, the “MDA Equivalent” value (EPA 3.5 μM, 3.5 Hour) was 4.80 µM and 5.58 µM and 2.94 µM, the “MDA Equivalent” value (EPA 3.5 μM, 4 Hour) was 7.07 µM and 7.76 µM and 5.08 µM and the “MDA Equivalent” value (EPA 3.5 μM, 6 Hour) was 10.01 µM and 10.29 µM and 10.46 µM. The “MDA Equivalent” value (EPA 4.0 μM, 3 Hour) was 2.35 µM and 1.43 µM, the “MDA Equivalent” value (EPA 4.0 μM, 6 Hour) was 11.45 µM and 10.37 µM and 10.33 µM and the “MDA Equivalent” value (EPA 4.5 μM, 3 Hour) was 0.61 µM and 0.51 µM and 0.53 µM. For the same compound, the “MDA Equivalent” value (EPA 4.5 μM, 3.5 Hour) was 1.04 µM and 0.92 µM and 0.96 µM, the “MDA Equivalent” value (EPA 4.5 μM, 4 Hour) was 1.27 µM and 1.03 µM and 1.15 µM and the “MDA Equivalent” value (EPA 4.5 μM, 6 Hour) was 7.40 µM and 6.84 µM and 7.53 µM. The “MDA Equivalent” value (EPA 5.0 μM, 3 Hour) was 0.37 µM and 0.38 µM and 0.42 µM, the “MDA Equivalent” value (EPA 5.0 μM, 3.5 Hour) was 0.71 µM and 0.69 µM and 0.82 µM and the “MDA Equivalent” value (EPA 5.0 μM, 4 Hour) was 0.71 µM and 0.84 µM and 0.96 µM. For the same compound, the “MDA Equivalent” value (EPA 5.0 μM, 6 Hour) was 5.15 µM and 5.42 µM and 5.96 µM, the “MDA Equivalent” value (EPA 10.0 μM, 3 Hour) was 0.13 µM and 0.11 µM and 0.07 µM and the “MDA Equivalent” value (EPA 10.0 μM, 3.5 Hour) was 0.28 µM and 0.19 µM and 0.21 µM. The “MDA Equivalent” value (EPA 10.0 μM, 6 Hour) was 1.01 µM and 0.87 µM and 0.82 µM.

Source: patent publication US20190209506A1, “METHODS OF REDUCING OR PREVENTING OXIDATION OF LDL OR LIPID MEMBRANES IN A SUBJECT IN NEED THEREOF” (Amarin Pharmaceuticals Ireland Limited, priority 2018, published 2019)
